The record followed here is PubChem BioAssay AID488969 (Vanderbilt High Throughput Screening Facility, 2010).

The full ranking holds about 110,000 compounds; the median of “z-score” is about -0.1, and the highest 2% start at about 2. The list shows a part of the results. The source made the active and inactive calls.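 The calls were made as follows: active = z-score in the third read window above 3 or below -3; inactive = the rest.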

This test addresses Metabotropic glutamate receptor 8 (Rattus norvegicus) (UniProt P70579). As to the kind of experiment: rat mGluR8 modulators via GIRK flux, primary screen, cell-based, thallium flux, HTS (AID 488969). The settings on record: HEK293 rat mGluR8, GIRK (G protein-gated inwardly rectifying potassium channel) thallium flux, FluoZin2; at 10 µM; stronger effect = higher value; submaximal glutamate (EC20) added with thallium.
Chain of UniProt P70579 (P70579 whole entry, looked up): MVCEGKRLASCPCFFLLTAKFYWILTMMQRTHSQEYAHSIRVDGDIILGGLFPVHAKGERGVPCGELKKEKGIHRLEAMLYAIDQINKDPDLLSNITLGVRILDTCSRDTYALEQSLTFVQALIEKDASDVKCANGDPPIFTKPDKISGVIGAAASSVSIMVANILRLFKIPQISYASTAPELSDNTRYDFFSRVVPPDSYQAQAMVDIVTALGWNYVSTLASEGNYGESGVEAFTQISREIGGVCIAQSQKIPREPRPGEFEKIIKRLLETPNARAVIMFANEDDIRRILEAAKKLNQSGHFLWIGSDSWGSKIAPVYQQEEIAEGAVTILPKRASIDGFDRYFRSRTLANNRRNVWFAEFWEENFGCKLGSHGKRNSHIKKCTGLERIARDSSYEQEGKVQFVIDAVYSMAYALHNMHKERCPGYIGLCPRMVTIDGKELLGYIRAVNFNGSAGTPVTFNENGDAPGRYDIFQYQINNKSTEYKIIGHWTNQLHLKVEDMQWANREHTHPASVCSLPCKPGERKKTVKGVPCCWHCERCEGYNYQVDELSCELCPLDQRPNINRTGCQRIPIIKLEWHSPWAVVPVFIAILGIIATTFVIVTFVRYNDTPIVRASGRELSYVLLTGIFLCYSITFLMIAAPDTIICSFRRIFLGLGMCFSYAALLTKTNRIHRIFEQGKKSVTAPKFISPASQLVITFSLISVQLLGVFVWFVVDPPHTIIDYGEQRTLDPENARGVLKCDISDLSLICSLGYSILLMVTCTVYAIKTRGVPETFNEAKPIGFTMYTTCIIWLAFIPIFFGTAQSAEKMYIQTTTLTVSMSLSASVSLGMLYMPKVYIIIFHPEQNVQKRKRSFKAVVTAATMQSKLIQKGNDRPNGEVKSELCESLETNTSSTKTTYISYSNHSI
The compound `Cc1ccc(S(=O)(=O)NC(=O)COc2ccccc2C(N)=O)cc1` had a z-score of 0.117.
For the compound `CCOC(=O)c1c(NC(=O)COC(=O)c2nc(Cl)ccc2Cl)sc2c1CCC2`, the z-score was -0.388.
`CCOC(=O)C1CCN(C(=O)CN(c2cccc(OC)c2)S(=O)(=O)c2ccccc2)CC1`: the z-score was -0.124.
As for `Cc1ccc(/C=C/C(=O)c2c(C)nc3ccccn23)cc1`, the z-score was -0.499.
The compound `O=C(CN1C(=O)CSc2ccccc21)NCCC1=CCCCC1` gave a z-score of 0.0736.
`O=C(C1=NN(c2ccccc2)C2C(=O)N(c3ccc(Cl)cc3)C(=O)C12)c1ccccc1` (centres undefined): the z-score was -0.0541.
Consider `Nc1nc(NC(=O)/C=C/c2ccccc2)nn1-c1ccccc1`, for which the z-score is -0.153.
The compound `Cc1ccc(-c2nc3cccnc3s2)cc1NC(=O)c1ccco1` came in with a z-score of 0.542.
Turning to `O=C(Nc1ccc(N2CCOCC2)cc1)c1cccc(S(=O)(=O)N2CCC(Cc3ccccc3)CC2)c1`, the z-score is 0.359.
In the case of `O=C(Nc1nnc(C2CC2)s1)c1ccc(S(=O)(=O)c2ccccc2)cc1` it was 0.00782; in that of `c1ccc(C2(CNc3ccccn3)CCCC2)cc1`, -0.181; in that of `Cc1ccc(NC(=O)NC(=O)COc2ccc(Cl)cc2Cl)c(C)c1`, -0.554.
With `COc1cc(C2C(C(=O)c3ccco3)=C(O)C(=O)N2Cc2cccnc2)cc(OC)c1OC` (centres undefined), the z-score came to 0.799.
For the compound `CN1c2ccccc2Oc2c(c(=O)n(C)c(=O)n2C)C1c1cccc([N+](=O)[O-])c1` (centres undefined), the z-score worked out at 0.777.
With `COc1cc(CNc2nc3ccccc3[nH]2)cc(OC)c1OC`, the z-score is -0.478.
In the case of `C#CCOc1ccc(Cl)cc1/C=N/O`, the z-score was -0.156.
`O=C(Nc1ccccc1-c1ccccc1)C1CCCCC1`: the z-score is -0.23.
Then `CCOC(=O)c1cc(-c2ccc3c(c2)OCCO3)nc2c1c(C)nn2CCC#N`, with -1.28; and `CCC(C)(C)n1c(=O)[nH]c2c(c1=O)CCC2`, with -0.0491.
In the case of `CC(C)(C)NC(=O)CN(C(=O)CS(=O)CC(=O)Nc1ccc(F)cc1)c1ccc(Cl)cc1` (centres undefined), the z-score is -0.24.
Take `Cc1ccc(-c2cc(C(F)F)n3ncc(C(=O)N4CCN5CCCC5C4)c3n2)cc1` (centres undefined): the z-score was -0.324.
Take `CC1CCCN(CC(=O)Nc2cccc([N+](=O)[O-])c2)C1` (centres undefined): the z-score was -0.561.
In turn, `COc1cccc(-c2nn(-c3ccccc3)cc2/C=C\C(=O)c2cccs2)c1` yielded a z-score of 0.12.
In the case of `O=C(Nc1ccccc1)c1ccc(S(=O)(=O)NCc2ccco2)cc1`, the z-score was -0.18.
On to `CC(=O)c1cccc(NC(=O)NC(C)C2CCCO2)c1` (centres undefined), for which the z-score was -0.0986.
With `O=C(c1csc2ccccc12)N1CCN(c2ccc(Cl)c(Cl)c2)CC1`, the z-score is -0.383.
`CCc1ccc2[nH]c3nc(SCC(=O)NNC(=O)c4ccc(C(C)(C)C)cc4)nnc3c2c1`: the z-score was -0.0392.
The compound `Cc1ccc(NC(=O)COc2nc(C)cs2)cc1` had a z-score of 0.182.
Then `Cc1ccc(C(=O)Nc2ccc([N+](=O)[O-])cn2)o1`, with -0.447; and `COc1ccc(-c2[nH]ncc2/C=N\NC(=O)c2ccc(C(C)(C)C)cc2)cc1OC`, with -0.413.
Compound `CCCCCC(=O)Nc1c(-c2ccc(OC)cc2)c(=O)c2ccccc2n1C` registered a z-score of 0.109.
Take `CCCNC(=O)COC(=O)c1ccccc1OCc1ccc(Cl)cc1`: the z-score is -0.833.
As for `Cc1nc(NC(=O)c2ccc(Cl)cc2)sc1-c1csc(Nc2cccc(F)c2)n1`, the z-score was -0.184.
As for `COc1ccc(C(=O)Nc2cc(C(=O)NCCc3ccccc3)ccc2Cl)cc1`, the z-score is -0.128.
On to `CCOC(=O)c1c(N)sc2c1CCSC2`, for which the z-score is -0.273.
Regarding `C/C(CCC12CC3CC(CC(C3)C1)C2)=N\NC(N)=S`, the z-score is -0.636.
Then `CCOC(=O)CSc1nnc(C)c(=O)[nH]1`, with -0.0243.
`Cc1nc2cc3nc(C(F)(F)F)[nH]c3cc2[nH]1`: the z-score is -0.218.
Regarding `CCn1c(CNc2ccc(F)cc2)nnc1SCC(=O)Nc1ccccc1OC`, the z-score is -1.06.
In the case of `O=C(COc1ccc(S(=O)(=O)N2CCCC2)cc1Cl)Nc1ccc2c(c1)OCO2` it was 0.222; in that of `CC1=CN2C(=N)/C(=C/c3ccco3)C(=O)N=C2S1`, -0.13; in that of `CCOC(=O)C1=C(C)NC(=O)NC1c1cccc(O)c1` (centres undefined), -0.126.
`CCSC1=NCN(CCCC(=O)O)CN1` displayed a z-score of 0.999.
Take `CCOC(=O)C1=C(c2ccc(OC)cc2)C(=O)c2ccccc2C1=O`: the z-score is -0.347.
In the case of `COc1ccc(S(=O)(=O)n2nc(OC(=O)c3c(-c4ccccc4Cl)noc3C)cc2N)cc1` it was -0.976; in that of `NC(=O)c1cc2nc(-c3ccco3)cc(C(F)(F)F)n2n1`, -0.0931.
As to `CC1(C)C(c2ccccc2)=NC(c2ccccc2)N1O` (centres undefined), the z-score is -0.299.
As to `COc1ccc(CCNC(=O)CC2COc3ccccc3O2)cc1OC` (centres undefined), the z-score was -0.214.
With `COc1ccc(-c2csc3nc(-c4cccnc4)nc(Cl)c23)cc1OC`, the z-score is -0.77.
`CC(=O)OC1CC(n2ccc(NC(=O)c3ccccc3)nc2=O)OC1CO` (centres undefined) gave a z-score of 0.698.
Then `Cc1ccc(C(=O)Nc2cc3c(cc2Cl)OCCCO3)cc1`, with 0.00202.
Consider `O=C(NNC(=O)c1ccc2ccccc2c1O)c1ccccc1Cl`, for which the z-score came out at 0.142.
For `O=C(Nc1ccccn1)C1COc2ccccc2O1` (centres undefined), the z-score is -0.278.
Turning to `CCOC(=O)CSc1nc(N2CCOCC2)c2c(c1C#N)CC(C)(C)N(C)C2`, the z-score is -0.514.
Turning to `Cc1ccc(-n2c(=O)c3sccc3n(Cc3cc(=O)n4ccccc4n3)c2=O)cc1`, the z-score is -0.518.
As for `Cc1cc(C)n(Cc2ccc(NC(=O)c3c([N+](=O)[O-])c(C)nn3C)cc2)n1`, the z-score was -0.127.
Consider `O=C(COC(=O)Cn1nnc2ccccc21)Nc1ccccc1Br`, for which the z-score was -0.647.
The compound `CCOC(=O)C(C)Sc1nnc(Cc2cc(=O)[nH]c(=O)[nH]2)n1-c1ccc(Cl)cc1` (centres undefined) showed a z-score of 0.496.
In the case of `COCCNc1nc2sc3c(c2c(=O)n1Cc1ccco1)CCCCC3` it was 1.48; in that of `CCOC(=O)C(Cc1ccccc1)(NC(C)=O)C(=O)OCC`, -0.647.
`O=C(N/N=C/c1cc([N+](=O)[O-])cc([N+](=O)[O-])c1O)/C(=C\c1cccs1)NC(=O)c1ccccc1`: the z-score was -0.0731.
`COc1cccc(NC(=S)NNC(=O)c2c([N+](=O)[O-])c(C)nn2C)c1` displayed a z-score of 0.0976.
For the compound `O=C(c1ccccc1)C1CN(c2ccccc2)CC1c1ccc(Cl)cc1` (centres undefined), the z-score is -0.113.
`CC1CN(c2nc3ccccn3c(=O)c2/C=C(\C#N)S(=O)(=O)c2ccccc2)CC(C)O1` (centres undefined): the z-score was -0.181.
Take `COc1cccc(NC(=S)NCc2ccncc2)c1`: the z-score was -0.0527.
For `O=[N+]([O-])c1ccc(-c2cc(-c3ccncc3)nc3ccc4ccccc4c23)cc1`, the z-score was 0.867.
For the compound `Cc1ccc(CNC(=O)COC(=O)c2ccc(S(=O)(=O)N3CCCC3)cc2)cc1`, the z-score was -0.0232.
For the compound `CCC(C)c1ccc(O)c(NC(=O)c2cncc(Br)c2)c1` (centres undefined), the z-score was -0.67.
`COc1cccc(OC)c1C(=O)Nn1c(-c2cccs2)nc2ccccc2c1=O` returned a z-score of 0.43.
Take `C=CCn1c(=O)c2c3c(sc2n2c(Nc4ccccc4)nnc12)CCCC3`: the z-score is -0.981.
Consider `CSc1ccc(C#N)cc1NC(=O)c1ccc(Cl)cc1`, for which the z-score is -0.0404.
`COC(=O)c1sc(NC(=O)COc2ccccc2)nc1C` yielded a z-score of 0.609.
Regarding `CC(C)(C)n1nnnc1C(c1ccncc1)N1CCN(c2ccc(O)cc2)CC1` (centres undefined), the z-score was -0.311.
Consider `CN1C2C=C3C(C#N)=C(N)C(C#N)(C#N)[C@H](c4c(F)cccc4F)[C@H]3C1CC2` (some centres undefined), for which the z-score was -0.484.
Regarding `CCOc1cc2[nH]c(=S)n(CCC(=O)NCc3ccc(OC)cc3)c(=O)c2cc1OCC`, the z-score was -0.239.
Then `Cc1ccc(NC(=O)c2ccco2)c(NC(=O)Cc2cccs2)c1`, with 0.0723; and `O=C(NCc1ccc(F)cc1)c1cnc(-c2ccccn2)nc1C(F)(F)F`, with -0.0654; and `CCn1c2ccccc2c2cc(/C=N/n3cn[nH]c3=S)ccc21`, with active: 11.5.
In the case of `O=C1c2ccccc2C(=O)N1Nc1ccccc1` it was active: 4.88.
In the case of `CC(=O)N/C(=C/c1ccc(OC(F)F)cc1)C(=O)O`, the z-score is -0.292.
Turning to `O=C(c1ccc(O)cc1)c1ccc(Cl)cc1`, the z-score was -0.563.
`Cc1ccc(-c2nnn(CC(=O)N(c3ccc(F)cc3)C(C(=O)NC(C)(C)C)c3ccco3)n2)o1` (centres undefined): the z-score was -0.139.
As to `CCOC(=O)C1=C(c2ccccc2)Nc2c(c(=O)n(C)c(=O)n2C)C1c1ccc(O)c(OC)c1` (centres undefined), the z-score stood at 0.108.
Then `Cc1ccc(NC(=O)CC(O)(C(F)(F)F)C(F)(F)F)cc1`, with -0.185; and `CCn1c(SCC(=O)Nc2ccc(S(=O)(=O)Nc3onc(C)c3C)cc2)nnc1-c1ccccc1`, with 0.092; and `O=C(O)c1cn(-c2ccccc2)nc1-c1cccnc1`, with -0.52.
Take `CSc1cccc(NC(=O)C(C)Sc2ccc(C)cc2)c1` (centres undefined): the z-score was 0.067.
Then `O=C(COc1ncnc2sccc12)N1CCN(S(=O)(=O)c2ccc(Cl)cc2)CC1`, with -0.0233; and `COC(=O)Cc1c(C)nc2nc(NCc3c(F)cccc3Cl)[nH]n2c1=O`, with -0.831.
In the case of `Cc1nnc(SCCN2C(=O)c3ccccc3C2=O)[nH]c1=O` it was 0.0812; in that of `CCCCNC(=S)N/N=C/c1ccc(C)s1`, 1.81; in that of `Cc1ccc(C(NC(=O)N2CCCCC2)=C(Cl)Cl)cc1F`, 0.0818.
Then `CC(=O)N1CCN2C(=O)C1CCCC(=O)c1cc(C(C)C)ccc12` (centres undefined), with 0.766; and `CCOc1cccc(SCc2noc(C(=O)NCC3CCCO3)c2C(=O)O)c1` (centres undefined), with -0.0276; and `C=CCN(CC=C)CC(O)CN(c1cc([N+](=O)[O-])ccc1OC)S(=O)(=O)c1ccccc1` (centres undefined), with -0.218.
In the case of `O=C(Cn1c(=O)oc2ccccc21)Nc1ccc2c(c1)OCCO2`, the z-score is 0.369.
Then `O=C1c2ccccc2C(Nc2ccc3c(c2)OCCO3)N1c1ccc(Cl)cn1` (centres undefined), with -0.263; and `COc1cc(/C=N/N2C(=O)c3ccccc3C2=O)ccc1O`, with -0.113; and `Cn1nnc(NC(=S)NC(=O)c2cccs2)n1`, with -0.0472.
Then `CCN=C1S/C(=C\c2ccc(OCC)c(OC)c2)C(=O)N1CC`, with 1.73; and `CC1=CC2(C#N)C3(N=C(N)C2(C#N)C(c2ccccc2)N1)OCCO3` (centres undefined), with -0.201.
Consider `Cc1cc(NC(=O)c2ccc(Cl)cc2)n(CCOC(=O)c2ccc(Cl)cc2)n1`, for which the z-score was -0.266.
Turning to `Cc1ccccc1NC(=S)N(CCN(C)C)C(C)c1ccccn1` (centres undefined), the z-score was -0.425.
On to `CCSc1nnc(NC(=O)c2ccc(C)cc2)s1`, for which the z-score turned out to be 0.629.
Consider `CCOc1ccc(N2C(=O)CC(NCCc3ccncc3)C2=O)cc1` (centres undefined), for which the z-score was -0.437.
As to `CCC(CC)C(=O)Nc1ccc(C)c(O)c1`, the z-score worked out at 0.0835.
In the case of `Cc1ccc2[nH]c(=O)c(-c3nc4ccccn4c3NCc3ccco3)cc2c1` it was -0.189; in that of `CCOC(=O)c1cnc(SC)nc1N`, -0.0813; in that of `O=C(O)/C=C/c1cccc(NS(=O)(=O)c2ccccc2)c1`, 0.00724.
